Data published in the supplement of paper PMC3334620.
Over roughly 33,000 sequences, “E-score (-0.5 to 0.5)” has its median near -0.032; the highest 2% begin near 0.36. The list shows a part of the results.

Each sequence was assayed against T1, Sko1 (UniProt Q02100) (assay: PBM E-score (8-mer binding enrichment) (E-score (-0.5 to 0.5)); higher = stronger / more preferred TF binding; most listed sequences are background and not binding sites). Settings: protein concentration: 200 nM; construct: GST-full length.
T1 sequence: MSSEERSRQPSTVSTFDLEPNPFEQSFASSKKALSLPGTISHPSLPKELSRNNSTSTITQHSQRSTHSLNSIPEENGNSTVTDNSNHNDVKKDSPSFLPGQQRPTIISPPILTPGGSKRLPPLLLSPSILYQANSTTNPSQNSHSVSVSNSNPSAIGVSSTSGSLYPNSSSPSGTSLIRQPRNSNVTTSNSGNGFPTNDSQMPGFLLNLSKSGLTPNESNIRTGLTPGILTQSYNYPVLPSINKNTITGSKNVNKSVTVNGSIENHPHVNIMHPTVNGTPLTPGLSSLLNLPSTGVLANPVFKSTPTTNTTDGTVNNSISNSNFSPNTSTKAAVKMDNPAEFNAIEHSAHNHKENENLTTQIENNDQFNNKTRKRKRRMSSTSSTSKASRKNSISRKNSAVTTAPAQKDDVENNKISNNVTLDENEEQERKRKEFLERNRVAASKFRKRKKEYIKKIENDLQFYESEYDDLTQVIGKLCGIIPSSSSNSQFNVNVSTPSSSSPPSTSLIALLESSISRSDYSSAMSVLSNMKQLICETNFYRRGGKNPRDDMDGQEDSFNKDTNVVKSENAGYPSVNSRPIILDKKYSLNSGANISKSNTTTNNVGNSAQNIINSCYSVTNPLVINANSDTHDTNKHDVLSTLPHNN
In short: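 Detection of bound protein used fluorescent anti-GST, with scans normalised by masliner. The proteins were GST-tagged yeast transcription factors applied at about 100-200 nM to universal all-10-mer Agilent arrays made double-stranded by primer extension. Each ungapped eight-base word, pooled with its reverse complement, was scored with an E-score from the Universal PBM Analysis Suite.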

| Sequence | PBM E-score |
| --- | --- |
| CATTTTAC | 0.281 |
| AGGCCCCT | -0.378 |
| AGCCATAA | 0.143 |
| AGACATCC | -0.0595 |
| GAGACTTA | -0.131 |
| CTCCATGA | 0.0278 |
| AAGCGTAA | 0.241 |
| ACGTGCAG | 0.32 |
| GTTATGAA | 0.139 |
| CAATTGAA | -0.109 |
| CCGTTGCA | -0.177 |
| ACCTACCG | -0.0842 |
| CGCTGAAG | -0.189 |
| GAGTCATC | -0.0308 |
| AACTCCTT | -0.0253 |
| CTGGATGC | -0.36 |
| GCCACCCA | -0.329 |
| ATCAATTG | 0.102 |
| ACCTCGCG | 0.0189 |
| CTCTTTGA | -0.065 |
| ATGAAGGA | 0.0878 |
| CCTGATGA | 0.162 |
| AAGAATCG | 0.179 |
| GACAACGC | 0.0984 |
| AGCGTCAG | 0.154 |

| Sequence | PBM E-score |
| --- | --- |
| ACTTCGTA | 0.212 |
| ACTTACCC | -0.0438 |
| AAGTGAGC | 0.0444 |
| TAAGCCGA | -0.02 |
| CCCACACA | -0.218 |
| ACGACCTG | -0.123 |
| GGGGATGA | -0.17 |
| GTAAGCTA | 0.24 |
| ATAAACCC | 0.118 |
| CAAACAAC | 0.205 |
| ACTTCTGA | 0.0203 |
| ACTACCTC | -0.0329 |
| CACAAAAA | 0.136 |
| ATATGAAG | 0.0536 |
| ATGTGCAA | 0.0773 |
| CACTAGCC | 0.0142 |
| CATACCAG | -0.0928 |
| GCTGGTTA | 0.064 |
| AAAGTTAG | 0.18 |
| ATGTCGCC | -0.104 |
| GCGCCCCA | -0.0711 |
| AACAGCTC | -0.0959 |
| AGGAAATG | 0.0666 |
| TAAGTAAA | 0.0578 |
| ACGATTAT | 0.184 |

| Sequence | PBM E-score |
| --- | --- |
| AGCAGGTG | -0.0269 |
| AACCGCCT | -0.247 |
| CAGTTGCG | 0.0907 |
| AAGCTAAA | 0.11 |
| ACAGTTTG | -0.171 |
| ATTTTGAG | 0.112 |
| CGGTCACC | -0.13 |
| AGCGGGCA | -0.296 |
| AGCCTATC | -0.0948 |
| CAAGCCAG | -0.0729 |
| CAAATGGA | -0.0346 |
| ACTGTACG | 0.157 |
| AATCCACC | -0.136 |
| ATAACGTG | 0.377 |
| ACACTGGT | -0.0931 |
| CCGTACAA | 0.0588 |
| CGAGCCAG | -0.113 |
| GCTCCATA | -0.0829 |
| CGTGCTCC | -0.164 |
| ACCCCGGG | -0.309 |
| ATTATCGG | -0.0667 |
| GGGAGTCA | -0.165 |
| GACAGAAC | 0.0194 |
| ACCCCATG | -0.0741 |
| CTGCAAGA | -0.119 |

| Sequence | PBM E-score |
| --- | --- |
| ATAACCAT | 0.057 |
| TTCCGGAA | -0.0873 |
| CAAAGAAA | 0.179 |
| AAATCCGT | 0.119 |
| GACTCTCC | -0.2 |
| GACTGACA | 0.0348 |
| AGAGTCCA | -0.123 |
| ATTCGGTG | 0.0911 |
| AAGCTACT | -0.00041 |
| ACCTTGCG | 0.0137 |
| CTACCGGC | -0.309 |
| CAATGAGC | -0.0908 |
| AAGTCATT | 0.0592 |
| AGAGGTAG | -0.178 |
| TATAAAAA | 0.224 |
| CGAGCCCA | -0.0666 |
| AGTCGCCC | -0.143 |
| ACCGCTAC | -0.179 |
| CGGCGTCC | -0.173 |
| AGTAGTTA | -0.129 |
| GTAAAACA | 0.217 |
| CTCGAGAA | -0.113 |
| CGCTATGA | 0.144 |
| ATGCTAGG | -0.135 |
| AGTCGGAT | -0.0432 |

| Sequence | PBM E-score |
| --- | --- |
| CGGCATCA | 0.0468 |
| GCTGGTAA | -0.0739 |
| ATAAGGAT | 0.188 |
| CGTAATGA | 0.461 |
| CTTGAAGA | -0.132 |
| ACAGCTTA | -0.00668 |
| ACTATACA | 0.0602 |
| TAATATGA | 0.264 |
| CGAGGGTA | -0.185 |
| TGATCCAA | 0.0166 |
| AAGTGGCC | -0.217 |
| ATTGCGTA | 0.472 |
| CATCCGCG | 0.0392 |
| ATAGCTAT | 0.0838 |
| AAGTACTA | 0.182 |
| ACGCGTCA | 0.436 |
| GTCTGACA | 0.0436 |
| GAATCCGC | -0.309 |
| TAACATCA | 0.367 |
| ACCCAGGG | -0.21 |
| CCGACCGC | -0.311 |
| TAGGACGA | -0.084 |
| AGACCGTG | -0.116 |
| ACGTGAGC | 0.264 |
| GCATCGAA | -0.147 |

| Sequence | PBM E-score |
| --- | --- |
| AATCTACT | 0.0253 |
| AGCTCGCC | -0.257 |
| GTCTTGCA | -0.0164 |
| GCATCACA | 0.16 |
| GCCTACAC | 0.0309 |
| CTGCGGGA | -0.29 |
| ATTCGTGG | 0.185 |
| TGCGTGAA | 0.227 |
| CGAAACAG | 0.0515 |
| AACACCGA | -0.0775 |
| AAGGGGTA | -0.265 |
| CAGCTGTC | -0.101 |
| AGGTGCAT | -0.0658 |
| GCTACCAC | -0.101 |
| AACTCTCC | -0.175 |
| AGACATGC | -0.0143 |
| AGCCACAC | 0.0697 |
| AAACTCAT | 0.132 |
| CGCAGATC | -0.114 |
| CGACTACG | 0.228 |
| CTGATACA | -0.058 |
| CGAGTCAA | -0.0833 |
| CGGCGCCG | -0.299 |
| TAAACTCA | 0.106 |
| CTAGACTC | -0.256 |

| Sequence | PBM E-score |
| --- | --- |
| ATGCATGA | 0.289 |
| AAGCCTAA | -0.0491 |
| CATGAGCA | -0.242 |
| AAGTCTCC | -0.0641 |
| CAATTGTG | 0.104 |
| ATACCGTC | 0.183 |
| CTTCATTA | 0.159 |
| GGACCAAC | -0.0204 |
| CGACATGA | 0.0616 |
| TAGCTTCA | 0.0123 |
| AGCTGACG | 0.347 |
| ATATTCTA | 0.163 |
| CTACTTCC | 0.0434 |
| TAGTGATA | 0.119 |
| CGAGGTAC | 0.0936 |
| AAATGGGC | -0.205 |
| CATATGTA | 0.225 |
| CTGTCCTC | -0.159 |
| GACGTAGC | 0.436 |
| ACGCTACG | 0.326 |
| ATAGAGCA | -0.0151 |
| GTCAGGTA | 0.101 |
